Test results published in PubChem BioAssay (NCI).
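Values below derive from 48-hour exposures of cells grown in 96-well plates, with endpoints linearly interpolated between the two concentrations bracketing the appropriate inhibition level. At the GI50, growth is halved. At the TGI there is no net growth.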

Each compound was assayed on NCI-H322M lung (assay: DTP human tumour cell line panel, 48 h).

SMILES | TGI | GI50
CC(=O)N1CC(=O)NC1=S | > 100 µM | 
COC(=O)CCc1ccc2c(c1)CC1(Cc3ccccc3C1)C2 | > 100 µM | 
N=c1n(Cc2ccccc2)c(N)cc(=O)n1Cc1ccccc1 | 11.2 µM | 3.42 µM
CCC1c2[nH]c3ccccc3c2C[C@H]2C(=O)NC(CCCCNC(=O)OC(C)(C)C)C(=O)N12 (some centres undefined) | > 100 µM | 
CCOC(=O)c1c(-c2ccccc2)nc2c(OC)nccn12 | > 100 µM | 
CCCNC(=O)Cn1c(C)cc2ccccc21 | > 100 µM | 
O=C1/C(=C/c2ccc(Cl)cc2)N=C(c2ccccc2)N1c1nc2c(Cl)cc(Cl)cc2s1 | > 100 µM | 
C/C(=N/c1[nH]c(=O)cc2c1C(=O)CC2)N(C)C | > 200 µM | 
Cc1cc(C)c2nc3nc(C)cc(C)c3c(N)c2c1 | 24.9 µM | 3.66 µM
NC1=CC(=O)c2nc3ccccc3c3ccnc1c23 | 24 µM | 0.673 µM
CCCc1nc(NC#N)nc(C(=O)NC23CC4CC(CC(C4)C2)C3)c1C | > 100 µM | 
N#Cc1c(N)nc(NCc2ccccc2)c(C#N)c1-c1ccccc1Cl | > 100 µM | 40.6 µM
Cn1c(=O)cc(N=Nc2ccc(Cl)c(Cl)c2)[nH]c1=O | > 100 µM | 
COc1cc([C@H]2CC(=O)C[C@@H](c3cc(OC)c(OC)c(OC)c3)C23C(=O)c2ccccc2C3=O)cc(OC)c1OC | > 100 µM | 
O=C1/C(=C/c2ccccc2F)CN(C(=O)C(Cl)Cl)C/C1=C\c1ccccc1F | 2.58 µM | 1.3 µM
Cc1c(C(=O)/C=C/c2c(Cl)cccc2Cl)c(=O)n(-c2ccccc2)n1C | > 100 µM | 
Cc1sc(Nc2ccccc2[N+](=O)[O-])c(C#N)c1C | > 100 µM | 
COc1ccc2oc(=O)c(-c3nc4ccccc4o3)cc2c1 | > 100 µM | 
Cc1ccc(NC2=C(Cl)C(=O)N(Cc3ccccc3)C2=O)cc1Cl | 28.9 µM | 13.8 µM
OCC1OC(n2cnc3c2NC=NC[C@H]3O)CC1O (some centres undefined) | > 500 µM | 

SMILES | TGI | GI50
C(=NCCCN1CCN(CCCN=Cc2cccc3ccccc23)CC1)c1cccc2ccccc12 | > 100 µM | 
Cc1cc2cc3cc(C)c(N)cc3[n+](C)c2cc1N | 12.5 µM | 3.01 µM
CCOC(=O)C(=O)Nc1c(CC)cccc1C(C)CC (centres undefined) | > 100 µM | 
O=[N+]([O-])c1cc(-c2nnc(C34CC5CC(CC(C5)C3)C4)o2)cc([N+](=O)[O-])c1 | > 100 µM | 
CC(C)[Si](OC1=C(c2ccccc2)C(NC(=O)/C=C/c2ccc([N+](=O)[O-])cc2)CCC1)(C(C)C)C(C)C (centres undefined) | > 100 µM | 
O=[N+]([O-])c1ccc(N/N=C(\c2ccccc2)c2ccccn2)nc1 | 27.3 µM | 
C=CC[C@@H]1/C=C(\C)C[C@H](C)C[C@H](OC)[C@H]2O[C@@](O)(C(=O)C(=O)N3CCCC[C@H]3C(=O)O[C@H](/C(C)=C/C3CC[C@@H](O)[C@H](OC)C3)[C@H](C)[C@@H](O)CC1=O)[C@H](C)C[C@@H]2OC (some centres undefined) | 31.9 µM | 15.8 µM
O=C(NCCNc1nccc(-c2c(-c3ccc(F)cc3)nc3sccn23)n1)c1ccccc1 | 41.4 µM | 10.7 µM
N#CCCOCN(CO)c1nc(N(CO)COCCC#N)nc(N(CO)COCCC#N)n1 | > 100 µM | 
O=NN/C(=C1\Nc2ccc([N+](=O)[O-])cc2NC1=O)C(O)c1ccc([N+](=O)[O-])cc1 (centres undefined) | > 100 µM | 
Cc1nn(-c2ccccc2)c2nc3c(nc12)C1=NCCN1C(c1ccc(Cl)cc1)N3 (centres undefined) | 20.4 µM | 7.55 µM
O=C1C2=Cc3ccccc3OC2(O)Oc2ccc(O)cc21 (centres undefined) | > 100 µM | 
COc1ccc(NC(=O)CC(=O)N2N=C(N(CCC#N)c3cccc(C)c3)CC2c2ccccc2)cc1 (centres undefined) | > 100 µM | 
Cc1ccc2ccc3ccc(C)nc3c2n1 | > 100 µM | 
CC1=NC(C(C)C)C(=O)O1 (centres undefined) | > 100 µM | 
CC(=O)c1ccc(NC(=O)C(=O)C(C(=O)c2ccc(Cl)c(Cl)c2)C2OC(=O)c3ccccc32)cc1 (centres undefined) | > 100 µM | 
COc1ccc(C(=O)C(C(=O)C(=O)NC2C3CC4CC(C3)CC2C4)c2ccc(OC)cc2)cc1 (centres undefined) | > 100 µM | 
CS/C(=N\S(=O)(=O)c1cc(C)c(Cl)cc1Cl)NNc1cnc2ccccc2n1 | > 100 µM | 
NCCCNCCSSC/C=C\CSSCCNCCCN | > 100 µM | 
